The supplement of paper PMC11876631
± gives the standard deviation of the averaged measurements. Laboratory Escherichia coli strains with one amino-acid change in an essential protein, pooled on minimal glucose agar with carbenicillin or gentamicin at twice the control MIC (plus kanamycin and chloramphenicol for the plasmids), 48 h. Fold change of barcode share against drug-free plates; higher = less susceptible. Active = above 20 in both replicates (the paper's putatively resistant). '<' = one read or none on drug, '>' = one read or none on a drug-free plate. Shares are relative, so most strains fall below 1 when a few take over. Listed are strains with at least 15 reads on both drug-free plates, and hits; most hits rest on fewer reference reads. Replicate rank correlation about 0.5. Edits are read from barcodes.

B1: fes; numbered along this chain (parent)
chain: MTALKVGSESWWQSKHGPEWQRLNDEMFEVTFWWRDPQGSEEYSTIKRVWVYITGVTDHHQNSQPQSMQRIAGTNVWQWTTQLNANWRGSYCFIPTERDDIFSVPSPDRLELREGWRKLLPQAIADPLNLQSWKGGRGHAVSALEMPQAPLQPGWDCPQAPEIPAKEIIWKSERLKKSRRVWIFTTGDATAEERPLAVLLDGEFWAQSMPVWPVLTSLTHRQQLPPAVYVLIDAIDTTHRAHELPCNADFWLAVQQELLPLVKAIAPFSDRADRTVVAGQSFGGLSALYAGLHWPERFGCVLSQSGSYWWPHRGGQQEGVLLEKLKAGEVSAEGLRIVLEAGIREPMIMRANQALYAQLHPIKESIFWRQVDGGHDALCWRGGLMQGLIDLWQPLFHDRS
B2: dxs; numbered along this chain (parent)
chain: MSFDIAKYPTLALVDSTQELRLLPKESLPKLCDELRRYLLDSVSRSSGHFASGLGTVELTVALHYVYNTPFDQLIWDVGHQAYPHKILTGRRDKIGTIRQKGGLHPFPWRGESEYDVLSVGHSSTSISAGIGIAVAAEKEGKNRRTVCVIGDGAITAGMAFEAMNHAGDIRPDMLVILNDNEMSISENVGALNNHLAQLLSGKLYSSLREGGKKVFSGVPPIKELLKRTEEHIKGMVVPGTLFEELGFNYIGPVDGHDVLGLITTLKNMRDLKGPQFLHIMTKKGRGYEPAEKDPITFHAVPKFDPSSGCLPKSSGGLPSYSKIFGDWLCETAAKDNKLMAITPAMREGSGMVEFSRKFPDRYFDVAIAEQHAVTFAAGLAIGGYKPIVAIYSTFLQRAYDQVLHDVAIQKLPVLFAIDRAGIVGADGQTHQGAFDLSYLRCIPEMVIMTPSDENECRQMLYTGYHYNDGPSAVRYPRGNAVGVELTPLEKLPIGKGIVKRRGEKLAILNFGTLMPEAAKVAESLNATLVDMRFVKPLDEALILEMAASHEALVTVEENAIMGGAGSGVNEVLMAHRKPVPVLNIGLPDFFIPQGTQEEMRAELGLDAAGMEAKIKAWLA
B3: valS; numbered along this chain (parent)
chain: MEKTYNPQDIEQPLYEHWEKQGYFKPNGDESQESFCIMIPPPNVTGSLHMGHAFQQTIMDTMIRYQRMQGKNTLWQVGTDHAGIATQMVVERKIAAEEGKTRHDYGREAFIDKIWEWKAESGGTITRQMRRLGNSVDWERERFTMDEGLSNAVKEVFVRLYKEDLIYRGKRLVNWDPKLRTAISDLEVENRESKGSMWHIRYPLADGAKTADGKDYLVVATTRPETLLGDTGVAVNPEDPRYKDLIGKYVILPLVNRRIPIVGDEHADMEKGTGCVKITPAHDFNDYEVGKRHALPMINILTFDGDIRESAQVFDTKGNESDVYSSEIPAEFQKLERFAARKAVVAAVDALGLLEEIKPHDLTVPYGDRGGVVIEPMLTDQWYVRADVLAKPAVEAVENGDIQFVPKQYENMYFSWMRDIQDWCISRQLWWGHRIPAWYDEAGNVYVGRNEDEVRKENNLGADVVLRQDEDVLDTWFSSALWTFSTLGWPENTDALRQFHPTSVMVSGFDIIFFWIARMIMMTMHFIKDENGKPQVPFHTVYMTGLIRDDEGQKMSKSKGNVIDPLDMVDGISLPELLEKRTGNMMQPQLADKIRKRTEKQFPNGIEPHGTDALRFTLAALASTGRDINWDMKRLEGYRNFCNKLWNASRFVLMNTEGQDCGFNGGEMTLSLADRWILAEFNQTIKAYREALDSFRFDIAAGILYEFTWNQFCDWYLELTKPVMNGGTEAELRGTRHTLVTVLEGLLRLAHPIIPFITETIWQRVKVLCGITADTIMLQPFPQYDASQVDEAALADTEWLKQAIVAVRNIRAEMNIAPGKPLELLLRGCSADAERRVNENRGFLQTLARLESITVLPADDKGPVSVTKIIDGAELLIPMAGLINKEDELARLAKEVAKIEGEISRIENKLANEGFVARAPEAVIAKEREKLEGYAEAKAKLIEQQAVIAAL

Variants of: B1
Assay: barcode share on antibiotic plates over drug-free plates; higher = less susceptible
Details: with Escherichia coli (laboratory strain); antibiotic: gentamicin; 2× MIC (MIC 0.45 µg/mL)
Experimental: (§1)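 A pool of E. coli strains, each edited to carry one amino-acid change in an essential protein, was grown for 48 h on minimal glucose agar with or without antibiotic; strain barcodes were sequenced; mean of two replicates.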

Q: Which “fold change of barcode share” value does the source give for V230Q here?
A: 0.138 ± 0.11

Variants of: B2
Assay: as above
Details: with Escherichia coli (laboratory strain); antibiotic: carbenicillin; 2× MIC (3.1 µg/mL)
Experimental: as §1

Q: How did the “fold change of barcode share” value turn out when L573D was run?
A: 0.354 ± 0.082

Q: For L573A, which “fold change of barcode share” value is on record?
A: 0.223 ± 0.084

Q: For M574A, which “fold change of barcode share” value is on record?
A: 0.486 ± 0.08

Q: Which “fold change of barcode share” value does the source give for L573W here?
A: 0.316 ± 0.034

Q: Which “fold change of barcode share” value does the source give for M574Q here?
A: 0.331 ± 0.01

Q: With I443A as the variant, how does the “fold change of barcode share” value read?
A: 1.28 ± 0.48

Q: L573Q was tested. Which “fold change of barcode share” value did it give?
A: 0.302 ± 0.0056

Q: Which “fold change of barcode share” value does the source give for I448W here?
A: 0.229 ± 0.09

Q: How did the “fold change of barcode share” value turn out when I448Q was run?
A: 0.303 ± 0.024

Q: Which “fold change of barcode share” value does the source give for M574P here?
A: 0.442 ± 0.26

Q: With M574W as the variant, how does the “fold change of barcode share” value read?
A: 0.373 ± 0.19

Q: V389Q was tested. Which “fold change of barcode share” value did it give?
A: 0.251 ± 0.18

Q: For I443D, which “fold change of barcode share” value is on record?
A: 0.205 ± 0.024

Q: With I448A as the variant, how does the “fold change of barcode share” value read?
A: 0.309 ± 0.04

Q: Which “fold change of barcode share” value does the source give for I75A here?
A: 0.227 ± 0.094

Q: Which “fold change of barcode share” value does the source give for M574D here?
A: 0.307 ± 0.041

Q: Which “fold change of barcode share” value does the source give for I443Q here?
A: 0.352 ± 0.042

Q: With I443P as the variant, how does the “fold change of barcode share” value read?
A: 0.382 ± 0.019

Q: How did the “fold change of barcode share” value turn out when L573P was run?
A: 0.351 ± 0.022

Same assay, conditions: with Escherichia coli (laboratory strain); antibiotic: gentamicin; 2× MIC (MIC 0.45 µg/mL)

Q: L573D was tested. Which “fold change of barcode share” value did it give?
A: < 0.00467

Q: L573A was tested. Which “fold change of barcode share” value did it give?
A: 0.00617 ± 0.0021

Q: With M574A as the variant, how does the “fold change of barcode share” value read?
A: 0.00496 ± 0.004

Q: For L573W, which “fold change of barcode share” value is on record?
A: 0.00915 ± 0.0062

Q: For M574Q, which “fold change of barcode share” value is on record?
A: 0.00399 ± 0.0022

Q: For I443A, which “fold change of barcode share” value is on record?
A: 0.117 ± 0.15

Q: For L573Q, which “fold change of barcode share” value is on record?
A: 0.005 ± 0.00033

Q: With I448W as the variant, how does the “fold change of barcode share” value read?
A: 0.244 ± 0.33

Q: I448Q was tested. Which “fold change of barcode share” value did it give?
A: < 0.0113

Q: With M574P as the variant, how does the “fold change of barcode share” value read?
A: < 0.00459

Q: How did the “fold change of barcode share” value turn out when M574W was run?
A: 0.00319 ± 0.0027

Q: With V389Q as the variant, how does the “fold change of barcode share” value read?
A: < 0.0181

Q: For I448A, which “fold change of barcode share” value is on record?
A: < 0.019

Q: Which “fold change of barcode share” value does the source give for I75A here?
A: 0.016 ± 0.013

Q: With M574D as the variant, how does the “fold change of barcode share” value read?
A: 0.00892 ± 0.01

Q: For I443Q, which “fold change of barcode share” value is on record?
A: 0.0093 ± 0.011

Q: For I443P, which “fold change of barcode share” value is on record?
A: 0.00825 ± 0.0073

Q: How did the “fold change of barcode share” value turn out when L573P was run?
A: < 0.00365

Q: For I443W, which “fold change of barcode share” value is on record?
A: > 88.1 [active]

Variants of: B3
Assay: as above
Details: with Escherichia coli (laboratory strain); antibiotic: carbenicillin; 2× MIC (3.1 µg/mL)
Experimental: as §1

Q: Which “fold change of barcode share” value does the source give for M505A here?
A: 0.314 ± 0.063

Q: How did the “fold change of barcode share” value turn out when M505D was run?
A: 0.35 ± 0.21

Q: With M505P as the variant, how does the “fold change of barcode share” value read?
A: 0.629 ± 0.22

Q: M505Q was tested. Which “fold change of barcode share” value did it give?
A: 0.278 ± 0.079

Q: For V506A, which “fold change of barcode share” value is on record?
A: 0.287 ± 0.04

Q: How did the “fold change of barcode share” value turn out when V506D was run?
A: 0.468 ± 0.2

Q: V506P was tested. Which “fold change of barcode share” value did it give?
A: 0.51 ± 0.25

Q: Which “fold change of barcode share” value does the source give for V506Q here?
A: 0.34 ± 0.0078

Q: V506W was tested. Which “fold change of barcode share” value did it give?
A: 0.497 ± 0.086

Same assay, conditions: with Escherichia coli (laboratory strain); antibiotic: gentamicin; 2× MIC (MIC 0.45 µg/mL)

Q: M505A was tested. Which “fold change of barcode share” value did it give?
A: 0.00569 ± 0.0065

Q: How did the “fold change of barcode share” value turn out when M505D was run?
A: 0.00705 ± 0.0067

Q: M505Q was tested. Which “fold change of barcode share” value did it give?
A: 0.0057 ± 0.0041

Q: For V506A, which “fold change of barcode share” value is on record?
A: < 0.00381

Q: V506P was tested. Which “fold change of barcode share” value did it give?
A: < 0.002

Q: V506Q was tested. Which “fold change of barcode share” value did it give?
A: 0.0169 ± 0.018
